Results from patent publication US11141452B2, “Bifunctional compounds for relief of pain comprising an opioid receptor agonist moiety and a NK1 receptor antagonist moiety and methods for treating pain” (THE ARIZONA BOARD OF REGENTS ON BEHALF OF THE UNIVERSITY OF …, priority 2014, dated 2021).
Several values for one entry are separate records, joined by “and”; a condition that tells them apart may be missing. Equal values may be shown once. Read-outs that look alike come from different tables or passages of the source. Part of at least one peptide drawing is inferred or uncertain, most often the ends. For some assays here: At least one compound was matched to its structure with a doubt left. Some entries share one result that the patent states for a list of compounds. Non-standard residues stand in square brackets, D forms with d. Residues, ends and D or L forms follow the SMILES beside them. *: point of attachment. NH(3,5-(CF3)2-benzyl) = FC(F)(F)c1cc(CN*)cc(C(F)(F)F)c1; NMeBn(3,5-(CF3)2) = CN(Cc1cc(C(F)(F)F)cc(C(F)(F)F)c1)*; Phe(4-F) = N[C@@H](Cc1ccc(F)cc1)C(=O)O; Dmt = Cc1cc(O)cc(C)c1C[C@H](N)C(=O)O

What was measured:
MOR [1] = assay: Guinea pig isolated ileum (GPI) functional assay; format: cell-based
NK1R = target: T1, NK1R (Cavia porcellus, UniProt P30547); assay: GPI/LMMP functional assay at NK1R (agonist and antagonist testing); format: cell-based, guinea pig; settings: for GPI/LMMP (NK1R) Agonist: agonist activity at the concentration in the cell; for Kb: read-out: GPI/LMMP (NK1R) Ke (nM) ± S.E.M.
T1 construct: The longitudinal muscle with myenteric plexus (LMMP) was carefully separated from the circular muscle; from tissue; host or cells: guinea pig ileum longitudinal muscle with myenteric plexus

MOR [2] = assay: Radioligand binding assay at μ opioid receptor; settings: for Log[IC50±] (μ): log IC50 ± error; for Ki^μ/Ki^δ: ratio of binding affinities MOR/DOR
Description: (§1) Binding affinities of these ligands were measured on radioligand binding assays. […] ([43]).

DOR [3] = target: T2, DOR (Mus musculus, UniProt P32300); assay: Mouse isolated vas deferens (MVD) functional assay; format: cell-based; settings: for IC50: read-out: MVD (DOR) IC50, agonist activity, electrically stimulated tissue
T2 construct: Male ICR mice under CO2 anesthesia were sacrificed by cervical dislocation and the vasa differentia removed; from tissue; host or cells: mouse vas deferens (ICR mice)

hNK1 = target: T3, hNK1 (Homo sapiens, UniProt P25103); assay: hNK1/CHO cell membrane radioligand binding assay ([3H]SP); settings: for Ki^hNK1/Ki^rNK1: ratio human/rat NK1; for Ki: read-out: Ki^hNK1, hNK1/CHO membranes, [3H]SP
T3 construct: expressed in transfected cells; host or cells: CHO

rNK1 = rNK1 (Rattus norvegicus, UniProt P14600); assay: Radioligand binding assay at rat NK1 receptor; settings: read-out: Ki^rNK1
Description: as §1

DOR [4] = target: DOR (Homo sapiens, UniProt P41143); assay: Radioligand binding assay at δ opioid receptor; settings: for Log[IC50±] (δ): log IC50 ± error, column beside Ki^δ; for Ki: read-out: Ki^δ
Description: as §1

[5] = agonist activity, electrically stimulated tissue, read-out: GPI (MOR) IC50
[6] = head of Table IX, read-out: GPI (MOR) ID50

Chain of rNK1 (P14600 whole entry): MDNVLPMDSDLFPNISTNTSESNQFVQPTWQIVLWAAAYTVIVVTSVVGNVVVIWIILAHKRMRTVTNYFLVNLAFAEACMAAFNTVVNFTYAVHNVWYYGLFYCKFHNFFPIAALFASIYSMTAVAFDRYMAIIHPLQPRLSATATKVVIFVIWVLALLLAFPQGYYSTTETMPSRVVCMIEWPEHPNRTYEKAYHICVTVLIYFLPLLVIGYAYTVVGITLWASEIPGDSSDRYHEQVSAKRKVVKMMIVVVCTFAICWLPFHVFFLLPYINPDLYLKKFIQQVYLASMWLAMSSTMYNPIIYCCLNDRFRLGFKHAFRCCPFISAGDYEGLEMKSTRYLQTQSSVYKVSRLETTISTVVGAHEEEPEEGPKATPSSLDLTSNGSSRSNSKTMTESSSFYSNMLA
Chain of DOR (Homo sapiens, UniProt P41143) (P41143 whole entry): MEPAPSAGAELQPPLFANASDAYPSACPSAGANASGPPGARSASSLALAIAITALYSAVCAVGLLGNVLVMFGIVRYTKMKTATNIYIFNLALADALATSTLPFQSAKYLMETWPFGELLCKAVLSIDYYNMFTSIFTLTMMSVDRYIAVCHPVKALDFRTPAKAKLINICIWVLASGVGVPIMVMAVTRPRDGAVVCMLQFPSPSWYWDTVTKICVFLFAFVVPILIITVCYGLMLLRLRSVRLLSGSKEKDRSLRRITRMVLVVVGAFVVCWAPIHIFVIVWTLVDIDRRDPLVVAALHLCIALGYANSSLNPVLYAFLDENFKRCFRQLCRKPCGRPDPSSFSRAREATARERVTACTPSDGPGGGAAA
T1 sequence (P30547 whole entry): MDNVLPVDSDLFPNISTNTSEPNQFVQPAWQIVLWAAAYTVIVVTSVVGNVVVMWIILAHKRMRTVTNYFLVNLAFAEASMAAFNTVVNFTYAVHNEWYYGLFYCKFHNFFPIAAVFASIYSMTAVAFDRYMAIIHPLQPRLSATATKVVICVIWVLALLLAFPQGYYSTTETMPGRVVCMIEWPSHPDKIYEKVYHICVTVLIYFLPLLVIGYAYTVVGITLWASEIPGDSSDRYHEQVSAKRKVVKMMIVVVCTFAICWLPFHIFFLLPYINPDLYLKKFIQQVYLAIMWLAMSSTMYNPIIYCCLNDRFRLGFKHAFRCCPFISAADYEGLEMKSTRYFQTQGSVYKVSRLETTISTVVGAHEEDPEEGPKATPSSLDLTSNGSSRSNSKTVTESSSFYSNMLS
T2 sequence (P32300 whole entry): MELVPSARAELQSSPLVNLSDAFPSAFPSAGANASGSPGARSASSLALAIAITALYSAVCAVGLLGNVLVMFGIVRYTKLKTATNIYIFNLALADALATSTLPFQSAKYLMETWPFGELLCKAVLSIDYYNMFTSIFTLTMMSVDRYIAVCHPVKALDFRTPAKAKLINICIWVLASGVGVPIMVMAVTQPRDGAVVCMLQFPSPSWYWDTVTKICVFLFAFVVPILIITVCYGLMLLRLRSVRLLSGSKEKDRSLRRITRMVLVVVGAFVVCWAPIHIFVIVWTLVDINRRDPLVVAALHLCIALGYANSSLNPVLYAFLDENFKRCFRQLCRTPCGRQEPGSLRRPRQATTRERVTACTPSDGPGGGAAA
T3 sequence (P25103 whole entry): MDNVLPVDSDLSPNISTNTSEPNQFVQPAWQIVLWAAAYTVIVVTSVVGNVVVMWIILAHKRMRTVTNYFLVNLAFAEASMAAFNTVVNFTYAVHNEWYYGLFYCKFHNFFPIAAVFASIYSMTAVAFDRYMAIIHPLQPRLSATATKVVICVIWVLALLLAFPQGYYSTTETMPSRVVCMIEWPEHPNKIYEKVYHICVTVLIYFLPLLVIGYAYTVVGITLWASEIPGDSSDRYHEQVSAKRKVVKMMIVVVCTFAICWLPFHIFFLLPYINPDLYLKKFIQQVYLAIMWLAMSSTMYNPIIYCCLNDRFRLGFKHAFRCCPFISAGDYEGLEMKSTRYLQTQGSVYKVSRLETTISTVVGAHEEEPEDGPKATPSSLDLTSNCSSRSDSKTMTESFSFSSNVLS

Structure (SMILES) | IC50 (MOR [1]; [5]) [nM] | IC50 (MOR [1]; [6]) [nM] | GPI/LMMP (NK1R) Agonist (NK1R) | Kb (NK1R; antagonist activity) | Ki (MOR [2]) | Log[IC50±] (μ) (MOR [2]) | Ki^μ/Ki^δ (MOR [2]) | higher agonist activity at DOR compared to MOR (functional assays) (DOR [3]) | IC50 (DOR [3]) | Ki^hNK1/Ki^rNK1 (hNK1) | Ki (hNK1) [nM] | Ki (rNK1) [nM] | Log[IC50±] (δ) (DOR [4]) | Ki (DOR [4]) [nM] | GPI/LMMP (NK1R) Ke (nM) ± S.E.M. (NK1R; antagonist activity) [nM]
CC(C)C[C@H](NC(=O)[C@@H]1CCCN1C(=O)[C@H](CO)NC(=O)[C@H](Cc1ccccc1)NC(=O)CNC(=O)[C@@H](C)NC(=O)[C@@H](N)Cc1ccc(O)cc1)C(=O)N[C@@H](Cc1c[nH]c2ccccc12)C(=O)NCc1cc(C(F)(F)F)cc(C(F)(F)F)c1 [AKG038] | 400 | 399 ± 108 | None at 30 nM | 5 nM and 4.8 nM | 130 nM | −6.60 ± 0.12 | 18/1 | 21 times | 18 nM and 18.4 nM | 1/106 | 2 | 210 | −7.74 ± 0.15 | 7 | 
CC(C)C[C@H](NC(=O)[C@@H]1CCCN1C(=O)[C@H](CCO)NC(=O)[C@H](Cc1ccccc1)NC(=O)CNC(=O)[C@@H](C)NC(=O)[C@@H](N)Cc1ccc(O)cc1)C(=O)N[C@@H](Cc1c[nH]c2ccccc12)C(=O)NCc1cc(C(F)(F)F)cc(C(F)(F)F)c1 [AKG039] | 130 | 128 ± 20.6 | None at 100 nM |  | 120 nM and 116 nM | −6.66 ± 0.06 | 19/1 | 21 times | 6 nM and 5.99 nM | 1/112 | 1.3 | 150 | −7.82 ± 0.28 | 6 | 9.7
CC(C)C[C@H](NC(=O)[C@@H]1CCCN1C(=O)[C@@H](CC(N)=O)NC(=O)[C@H](Cc1ccccc1)NC(=O)CNC(=O)[C@@H](C)NC(=O)[C@@H](N)Cc1ccc(O)cc1)C(=O)N[C@@H](Cc1c[nH]c2ccccc12)C(=O)NCc1cc(C(F)(F)F)cc(C(F)(F)F)c1 [AKG102] |  |  |  |  | 90 nM | −6.68 ± 0.09 |  |  |  |  | 2.3 | 130 | −6.90 ± 0.06 |  | 
CC(C)C[C@H](NC(=O)[C@@H]1CCCN1C(=O)[C@H](Cc1ccc(O)cc1)NC(=O)CNC(=O)[C@H](Cc1ccccc1)NC(=O)[C@@H](C)NC(=O)[C@@H](N)Cc1ccc(O)cc1)C(=O)N[C@@H](Cc1c[nH]c2ccccc12)C(=O)NCc1cc(C(F)(F)F)cc(C(F)(F)F)c1 [AKG114] (H-Y[dA]FGYPLW-{NH(3,5-(CF3)2-benzyl)}) |  |  |  |  |  |  |  |  | 29 nM |  |  |  | −7.40 ± 0.07 |  | 
Cc1cc(O)cc(C)c1C[C@H](N)C(=O)N[C@H](C)C(=O)N[C@@H](Cc1ccccc1)C(=O)NCC(=O)N[C@@H](Cc1ccc(O)cc1)C(=O)N1CCC[C@H]1C(=O)N[C@@H](CC(C)C)C(=O)N[C@@H](Cc1c[nH]c2ccccc12)C(=O)NCc1cc(C(F)(F)F)cc(C(F)(F)F)c1 [AKG118] (H-[Dmt][dA]FGYPLW-{NH(3,5-(CF3)2-benzyl)}) |  |  |  |  |  |  |  |  |  |  | 2.3 | 25 | −8.20 ± 0.04 | 3 | 
CC(C)C[C@H](NC(=O)[C@@H]1CCCN1C(=O)CCNC(=O)[C@H](Cc1ccccc1)N(C)C(=O)CNC(=O)[C@@H](C)NC(=O)[C@@H](N)Cc1ccc(O)cc1)C(=O)N[C@@H](Cc1c[nH]c2ccccc12)C(=O)NCc1cc(C(F)(F)F)cc(C(F)(F)F)c1 [AKG119, H-Tyr-D-Ala-Gly-NMePhe-β-Ala-Pro-Leu-Trp-NH-Bn(3′,5′-(CF3)2)] |  |  |  | 20.8 ± 3.8 nM |  |  |  | 7-10 times | 36.7 ± 4.18 nM |  |  | 29.4 ± 2.66 | −6.97 ± 0.05 | 46 | 
CC(C)C[C@H](NC(=O)[C@@H]1CCCN1C(=O)CCCNC(=O)[C@H](Cc1ccccc1)N(C)C(=O)CNC(=O)[C@@H](C)NC(=O)[C@@H](N)Cc1ccc(O)cc1)C(=O)N[C@@H](Cc1c[nH]c2ccccc12)C(=O)NCc1cc(C(F)(F)F)cc(C(F)(F)F)c1 [AKG123, H-Tyr-D-Ala-Gly-NMePhe-γ-Abu-Pro-Leu-Trp-NH-Bn(3′,5′-(CF3)2)] |  |  |  |  |  |  |  | 7-10 times |  |  |  |  |  |  | 
CC(C)C[C@H](NC(=O)[C@@H]1CCCN1C(=O)CCCCCNC(=O)[C@H](Cc1ccccc1)N(C)C(=O)CNC(=O)[C@@H](C)NC(=O)[C@@H](N)Cc1ccc(O)cc1)C(=O)N[C@@H](Cc1c[nH]c2ccccc12)C(=O)NCc1cc(C(F)(F)F)cc(C(F)(F)F)c1 [AKG124, H-Tyr-D-Ala-Gly-NMePhe-[4]6-Ahx-Pro-Leu-Trp-NH-Bn(3′,5′-(CF3)2)] |  |  |  |  |  |  |  | 7-10 times |  |  |  |  |  |  | 
CC(C)C[C@H](NC(=O)[C@@H]1CCCN1C(=O)[C@H](CCC(N)=O)NC(=O)[C@H](Cc1ccccc1)N(C)C(=O)CNC(=O)[C@@H](C)NC(=O)[C@@H](N)Cc1ccc(O)cc1)C(=O)N[C@@H](Cc1c[nH]c2ccccc12)C(=O)NCc1cc(C(F)(F)F)cc(C(F)(F)F)c1 [AKG129] |  |  |  |  |  |  |  |  |  |  | 1 |  | −8.56 ± 0.04 | 1 | 
CC(C)C[C@H](NC(=O)[C@@H]1CCCN1C(=O)[C@H](CO)NC(=O)[C@H](Cc1ccc(F)cc1)NC(=O)CNC(=O)[C@@H](C)NC(=O)[C@@H](N)Cc1ccc(O)cc1)C(=O)N[C@@H](Cc1c[nH]c2ccccc12)C(=O)NCc1cc(C(F)(F)F)cc(C(F)(F)F)c1 [AKG133] (H-Y[dA]G[Phe(4-F)]SPLW-{NH(3,5-(CF3)2-benzyl)}; N-terminus assumed) |  | 85.4 ± 18.7 | None at 30 nM | 2.43 ± 0.72 nM | 8 nM | −7.69 ± 0.09 | 4/1 |  | 11 ± 2.5 nM | 1/26 | 4.86 ± 1.88 | 125 ± 40.5 | −8.44 ± 0.03 | 2 | 
Cc1cc(O)cc(C)c1C[C@H](N)C(=O)N[C@H](C)C(=O)NCC(=O)N(C)[C@@H](Cc1ccccc1)C(=O)N[C@@H](CCC(N)=O)C(=O)N1CCC[C@H]1C(=O)N[C@@H](CC(C)C)C(=O)N[C@@H](Cc1c[nH]c2ccccc12)C(=O)NCc1cc(C(F)(F)F)cc(C(F)(F)F)c1 [AKG141] |  |  |  |  |  |  |  |  |  |  |  | 20 ± 1.8 |  |  | 
CC(C)C[C@H](NC(=O)[C@@H]1CCCN1C(=O)[C@H](CN)NC(=O)[C@H](Cc1ccccc1)N(C)C(=O)CNC(=O)[C@@H](C)NC(=O)[C@@H](N)Cc1ccc(O)cc1)C(=O)N[C@@H](Cc1c[nH]c2ccccc12)C(=O)NCc1cc(C(F)(F)F)cc(C(F)(F)F)c1 [AKG171] |  |  |  |  | 3 nM | −8.24 ± 0.49 | 1/11 |  |  | 1/3 | 3 | 8.5 | −7.13 ± 0.05 |  | 
CC(C)C[C@H](NC(=O)[C@@H]1CCCN1C(=O)[C@H](CCN)NC(=O)[C@H](Cc1ccccc1)N(C)C(=O)CNC(=O)[C@@H](C)NC(=O)[C@@H](N)Cc1ccc(O)cc1)C(=O)N[C@@H](Cc1c[nH]c2ccccc12)C(=O)NCc1cc(C(F)(F)F)cc(C(F)(F)F)c1 [AKG172] |  |  |  |  | 8 nM | −7.84 ± 0.11 | 1/12 |  |  |  |  | 8.2 | −6.65 ± 0.08 | 100 | 
CC(C)C[C@H](NC(=O)[C@@H]1CCCN1C(=O)Cc1ccc(CNC(=O)[C@H](Cc2ccccc2)N(C)C(=O)CNC(=O)[C@@H](C)NC(=O)[C@@H](N)Cc2ccc(O)cc2)cc1)C(=O)N[C@@H](Cc1c[nH]c2ccccc12)C(=O)NCc1cc(C(F)(F)F)cc(C(F)(F)F)c1 [AKG178, H-Tyr-D-Ala-Gly-NMePhe-4-Ampa-Pro-Leu-Trp-NH-Bn(3′,5′-(CF3)2)] |  |  |  |  |  |  |  |  | 44 nM |  |  | 72 | −6.64 ± 0.17 | 100 | 
CC(C)C[C@H](NC(=O)[C@@H]1CCCN1C(=O)[C@H](Cc1ccc(O)cc1)NC(=O)CNC(=O)[C@H](Cc1ccccc1)NC(=O)[C@@H](C)NC(=O)[C@@H](N)Cc1ccc(O)cc1)C(=O)N[C@@H](Cc1c[nH]c2ccccc12)C(=O)N(C)Cc1cc(C(F)(F)F)cc(C(F)(F)F)c1 [QXP04] (H-Y[dA]FGYPLW-{NMeBn(3,5-(CF3)2)}) |  |  |  | 36.3 ± 16.2 nM |  |  |  |  | 16.6 ± 4.57 nM |  | 3.8 ± 0.54 | 13 ± 1.7 | −6.82 ± 0.06 | 69 | 
